# Where “and” joins values, the source holds several entries; their conditions need not be identical. Identical values can stand only once. The shares of active, inactive and inconclusive entries below differ from those in the screen. For some of these results: Potencies of inconclusive entries are doubtful fits and often do not repeat. More than one record can exist for a structure, and the calls need not agree. Calls of active or inactive are those of the source. Unless noted, calls follow the shape of the dose curve; as a rule, active = well fitted curve in the direction sought with a large enough effect in the repeat runs; inconclusive = weak or mixed curves; inactive = no such curve, though single readings can be large; an effect the other way counts as inactive or inconclusive.
# Tests used:
# [1] = A CellTox Green Cytotoxicity Assay to monitor cytotoxicity in HepG2 cells - 8 hour (AID 1224890); also: nearly all actives have a fitted effect of over 45% in size
# How it was run: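 HepG2 cells, 600/well, preincubated 5 h with CellTox Green dye, then exposed to Tox21 compounds in DMSO at 37 C for up to 40 h. Dead-cell DNA fluorescence read at the indicated time point.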
# [2] = qHTS assay to identify small molecule antagonists of the androgen receptor (AR) signaling pathway using the MDA cell line in the presence of 0.5 nM R1881 - cell viability counter screen (AID 1259242); also: nearly all actives have a fitted effect of over 45% in size
# How it was run: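 MDA-kb2 cells (MMTV-luciferase, AR/GR responsive) were treated with compounds plus 0.5 nM R1881 (final) for 16 hr at 37C, 0% CO2. Viability was then read in the same wells as live-cell protease fluorescence (CellTiter-Fluor, 30 min).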
# [3] = qHTS assay to identify small molecule antagonists of the sonic hedgehog signaling (Shh) pathway (AID 1259369; calls by dose curve; also: nearly all actives have a fitted effect of over 45% in size)
# How it was run: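 NIH/3T3-derived Gli1-Luc reporter cells plated 4 h, dosed with compound, then stimulated with conditioned medium for 24 h at 37 C. Firefly luciferase luminescence read after 30 min with detection reagent at room temperature.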
# [4] = target: Estrogen receptor beta (Homo sapiens) (UniProt Q92731); experiment: qHTS assay to identify small molecule antagonists of the estrogen receptor beta (ER-beta) signaling pathway (AID 1259378; active = well fitted inhibition curve with a large enough effect in the signal ratio in the repeat runs, not every such curve was filed as active; inconclusive = weak or mixed curves, or effect the other way; inactive = no such curve, though single readings can be large or run the other way; the % refers to the signal ratio); details: ER-beta-UAS-bla HEK293T, beta-lactamase FRET ratio, 16 h; activity, negative = inhibition: at 92.4 µM (top of the series) unless noted
# Chain of UniProt Q92731 (Q92731 whole entry, looked up): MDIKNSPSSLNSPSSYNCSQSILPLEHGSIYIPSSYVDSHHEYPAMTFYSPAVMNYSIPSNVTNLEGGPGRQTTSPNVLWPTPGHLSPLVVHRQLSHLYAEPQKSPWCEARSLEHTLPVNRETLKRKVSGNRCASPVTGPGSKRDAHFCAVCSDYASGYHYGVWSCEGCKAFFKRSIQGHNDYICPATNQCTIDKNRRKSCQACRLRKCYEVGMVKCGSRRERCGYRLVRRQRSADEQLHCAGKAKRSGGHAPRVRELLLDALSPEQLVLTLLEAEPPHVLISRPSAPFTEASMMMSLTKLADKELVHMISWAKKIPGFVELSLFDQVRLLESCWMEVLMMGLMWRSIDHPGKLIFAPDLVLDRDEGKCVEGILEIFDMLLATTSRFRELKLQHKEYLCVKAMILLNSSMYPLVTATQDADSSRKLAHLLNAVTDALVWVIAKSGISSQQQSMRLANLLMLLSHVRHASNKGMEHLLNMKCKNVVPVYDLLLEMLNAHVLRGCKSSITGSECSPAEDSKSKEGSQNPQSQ
# How it was run: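 Antagonist mode: compounds added to beta-lactamase reporter HEK293T ER-beta-UAS cells stimulated with E2 (1nM final), 16 hr at 37C. LiveBLAzer B/G FRET substrate, 2 hours room temperature, fluorescence read-out.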
# [5] = qHTS assay to identify small molecule agonists of the androgen receptor (AR) signaling pathway in the presence of an antagonist - cell viability counter screen (AID 1259379); also: nearly all actives have a fitted effect of over 25% in size
# How it was run: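 MDA-kb2 cells (MMTV-luciferase, AR/GR), 3,000/well, 5 h attachment, then 3.0 µM nilutamide (final) and compounds at 15 concentrations. Viability by CellTiter-Fluor fluorescence after 16 h at 37 °C, 0% CO2, in the reporter wells.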
# [6] = qHTS assay to identify small molecule antagonists of the estrogen receptor alpha (ER-alpha) signaling pathway using the BG1 cell line in the presence of 0.1 nM 17-beta-estradiol - cell viability counter screen (AID 1259241); also: nearly all actives have a fitted effect of over 40% in size; as to activity change, negative = cytotoxicity: % is scaled to controls: 0 for no effect and ±100 for the full control effect
# How it was run: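 Estradiol-stimulated (0.1 nM) VM7Luc4E2 cells exposed to compounds 22 hr; viability measured by fluorescence of cleaved CellTiter-Fluor substrate after 30 min.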
# [7] = qHTS assay to identify small molecule HDAC inhibitors (AID 1259364); also: nearly all actives have a fitted effect of over 45% in size
# How it was run: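 Wild-type HCT-116 cells, plated overnight at 37 C, exposed to compounds 2 hr at 37 C; luminogenic HDAC-Glo substrate then added 30 min at room temperature. Luminescence reports relative endogenous class I/II HDAC activity.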
# [8] = qHTS assay to identify small molecule agonists of the sonic hedgehog signaling (Shh) pathway - cell viability counter screen (AID 1259366); also: nearly all actives have a fitted effect of over 50% in size
# How it was run: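 Same-well cytotoxicity read. Gli1-Luc reporter 3T3 cells; compounds 24hr, 37C/5% CO2; CellTiter-Fluor fluorescence.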
# [9] = qHTS assay to identify small molecule HDAC inhibitors - cell viability counter screen (AID 1259365); also: nearly all actives have a fitted effect of over 50% in size
# How it was run: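 After overnight seeding at 1,500 cells per well, wild-type HCT-116 cultures took up compounds in DMSO for 2hr at 37 C. Viable cell content came from luminescence with CellTiter-Glo.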
# [10] = qHTS assay to identify small molecule antagonists of the sonic hedgehog signaling (Shh) pathway - cell viability counter screen (AID 1259367); also: nearly all actives have a fitted effect of over 55% in size
# How it was run: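 Using CellTiter-Fluor, viability of Gli1-Luc reporter 3T3 cells is read by fluorescence in the wells used for the Shh luciferase assay. Treatment lasts 23 hr with conditioned medium, then reagent 1 hr at 37C.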
# [11] = qHTS assay to identify small molecule agonists of the estrogen receptor beta (ER-beta) signaling pathway - cell viability counter screen (AID 1259380); also: nearly all actives have a fitted effect of over 30% in size
# How it was run: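 ER-beta-UAS-bla HEK293T cells in medium with 2% charcoal-stripped FBS, pre-incubated 6 hr, then treated 16 hr at 37C. Cytotoxicity read in the same wells by CellTiter-Glo luminescence after 30 min at room temperature.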
# [12] = target: Estrogen receptor (Homo sapiens) (UniProt P03372); experiment: qHTS assay to identify small molecule agonists of the estrogen receptor alpha (ER-alpha) signaling pathway in the presence of an antagonist (AID 1259383; calls by dose curve; also: nearly all actives have a fitted effect of over 15% in size)
# Chain of UniProt P03372 (P03372 whole entry, looked up): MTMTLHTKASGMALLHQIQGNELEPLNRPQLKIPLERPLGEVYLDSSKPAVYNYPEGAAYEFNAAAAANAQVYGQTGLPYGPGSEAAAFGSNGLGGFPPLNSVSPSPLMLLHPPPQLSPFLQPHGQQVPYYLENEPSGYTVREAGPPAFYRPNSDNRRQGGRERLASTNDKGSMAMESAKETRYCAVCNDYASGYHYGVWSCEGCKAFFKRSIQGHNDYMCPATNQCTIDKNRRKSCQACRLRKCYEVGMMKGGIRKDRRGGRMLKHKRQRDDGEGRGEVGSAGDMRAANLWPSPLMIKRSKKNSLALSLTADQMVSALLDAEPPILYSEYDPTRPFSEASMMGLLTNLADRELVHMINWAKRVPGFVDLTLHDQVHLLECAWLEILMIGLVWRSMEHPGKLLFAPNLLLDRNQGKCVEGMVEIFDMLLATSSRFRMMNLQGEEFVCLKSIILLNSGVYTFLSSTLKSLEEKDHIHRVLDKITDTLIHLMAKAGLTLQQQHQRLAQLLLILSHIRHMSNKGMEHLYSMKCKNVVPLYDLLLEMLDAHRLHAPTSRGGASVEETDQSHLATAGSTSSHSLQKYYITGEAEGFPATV
# How it was run: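 VM7Luc4E2 cells express endogenous full-length ER-alpha with an ERE-luciferase reporter and were hormone-deprived for 5 days. Compounds at 15 concentrations were added with 10.0nM ICI-182,780 for 22hr at 37C. Luminescence was read with ONE-Glo.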
# Potency is read from the fitted curve at half-maximal effect; tags tell the direction and shape of the fitted curve or compound fluorescence and quenching.
smiles,measurement,setting,value
c1ccc(Nc2ccccc2)cc1,Potency,[1],"inconclusive: 48.9 µM [activator, single point]"
same,Potency,[2],"inconclusive: 68.5 µM [cytotoxic, partial curve, poor fit]"
same,Potency,[3],"inconclusive: 68.6 µM [inhibitor, single point]"
same,Potency,[4],active: 24.3 µM
same,Potency,[5],active: 43.2 µM
Cc1cn([C@H]2C[C@H](F)[C@@H](CO)O2)c(=O)[nH]c1=O,Potency,[1],"inconclusive: 0.213 µM [activator, single point]"
same,Potency,[6],inactive
same,Potency,[7],inactive
COc1cc2nc(N3CCN(C(=O)c4ccco4)CC3)nc(N)c2cc1OC,Potency,[1],"inconclusive: 6.57 µM [activator, single point]"
same,"activity change, negative = cytotoxicity",[6],inactive: 2.36% [at 19 µM]
same,Potency,[2],"inconclusive: 16.4 µM [cytotoxic, single point]"
same,Potency,[7],"inconclusive: 10.3 µM [inhibitor, partial curve]"
same,Potency,[8],"inconclusive: 16.4 µM [cytotoxic, single point]"
same,Potency,[3],"inconclusive: 16.4 µM [inhibitor, single point]"
same,Potency,[5],"inconclusive: 14.6 µM [cytotoxic, single point]"
CC(=O)Oc1ccccc1C(=O)Nc1ncc([N+](=O)[O-])s1,Potency,[1],"inconclusive: 0.301 µM [activator, partial curve, poor fit]"
same,Potency,[6],"inconclusive: 22.1 µM [cytotoxic, partial curve] and active: 16.8 µM"
same,Potency,[9],"inconclusive: 22.1 µM [cytotoxic, partial curve]"
same,Potency,[10],active: 24.8 µM and active: 26.6 µM
same,Potency,[5],active: 22.1 µM and active: 13.3 µM
same,Potency,[11],active: 12.4 µM and active: 7.5 µM
same,Potency,[12],"inconclusive: 0.75 µM [activator, partial curve]"
